# Laboratory results reported in the supplement of paper PMC8728848.
# Some of the results follow.
# B1: Banana lectin (Musa acuminata) (protein)
# chain: MNGAIKVGAWGGNGGSAFDMGPAYRIISVKIFSGDVVDAVDVTFTYYGKTETRHFGGSGGTPHEIVLQEGEYLVGMKGEFGNYHGVVVVGKLGFSTNKKSYGPFGNTGGTPFSLPIAAGKISGFFGRGGDFIDAIGVYLEP
# Legend:
# Assay in all cases: glycan array binding signal (z-score within array); higher = stronger binding
# Conditions in all cases: glycan notation: IUPAC condensed, linker removed
# [1] = biological target: GlcNAc(b1-3)Gal(b1-4)GlcNAc(b1-3)Gal(b1-4)GlcNAc(b1-3)Gal(b1-4)GlcNAc(b1-3)Gal(b1-4)GlcNAc(b1-2)[GlcNAc(b1-3)Gal(b1-4)GlcNAc(b1-3)Gal(b1-4)GlcNAc(b1-3)Gal(b1-4)GlcNAc(b1-3)Gal(b1-4)GlcNAc(b1-6)]Man(a1-6)[GlcNAc(b1-3)Gal(b1-4)GlcNAc(b1-3)Gal(b1-4)GlcNAc(b1-3)Gal(b1-4)GlcNAc(b1-3)Gal(b1-4)GlcNAc(b1-2)Man(a1-3)]Man(b1-4)GlcNAc(b1-4)[Fuc(a1-6)]GlcNAc
# Procedure, shortened: (§1)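 The binding signal is a Z-score computed within each array. Data were drawn from 3228 arrays in the Consortium for Functional Glycomics database, restricted to those with a known protein sequence. Scores were averaged over arrays of the same protein sequence at different concentrations or buffers, and over linkers, and negative values can be taken as non-binding.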
# [2] = biological target: GlcNAc(b1-3)Gal(b1-4)GlcNAc(b1-3)Gal(b1-4)GlcNAc(b1-3)GalNAc
# Procedure, shortened: as §1
# [3] = biological target: GlcNAc(b1-3)Gal(b1-4)GlcNAc(b1-3)GalNAc
# Procedure, shortened: as §1
# [4] = biological target: GlcNAc(b1-3)Gal(b1-4)GlcNAc(b1-3)[GlcNAc(b1-3)Gal(b1-4)GlcNAc(b1-3)]GalNAc
# Procedure, shortened: as §1
# [5] = biological target: GlcNAc(b1-3)Gal(b1-4)GlcNAc(b1-6)[Gal(b1-3)]GalNAc
# Procedure, shortened: as §1
# [6] = biological target: GlcNAc(b1-3)Gal(b1-4)GlcNAc(b1-6)[GlcNAc(b1-3)Gal(b1-3)]GalNAc
# Procedure, shortened: as §1
# [7] = biological target: GlcNAc(b1-3)Gal(b1-4)GlcNAc(b1-6)[GlcNAc(b1-3)]Gal(b1-4)GlcNAc
# Procedure, shortened: as §1
# GlcNAc(b1-3)GalNAc = biological target: GlcNAc(b1-3)GalNAc
# Procedure, shortened: as §1
# GlcNAc(b1-3)Man = biological target: GlcNAc(b1-3)Man
# Procedure, shortened: as §1
# [8] = biological target: GlcNAc(b1-3)[GlcNAc(b1-4)][GlcNAc(b1-6)]GlcNAc
# Procedure, shortened: as §1
# [9] = biological target: GlcNAc(b1-3)[GlcNAc(b1-6)]Gal(b1-4)GlcNAc
# Procedure, shortened: as §1
# [10] = biological target: GlcNAc(b1-3)[GlcNAc(b1-6)]GalNAc
# Procedure, shortened: as §1
# [11] = biological target: GlcNAc(b1-4)Gal(b1-4)GlcNAc
# Procedure, shortened: as §1
# GlcNAc(b1-4)GlcNAc = biological target: GlcNAc(b1-4)GlcNAc
# Procedure, shortened: as §1
# [12] = biological target: GlcNAc(b1-4)GlcNAc(b1-4)GlcNAc
# Procedure, shortened: as §1
# [13] = biological target: GlcNAc(b1-4)GlcNAc(b1-4)GlcNAc(b1-4)GlcNAc(b1-4)GlcNAc
# Procedure, shortened: as §1
# [14] = biological target: GlcNAc(b1-4)GlcNAc(b1-4)GlcNAc(b1-4)GlcNAc(b1-4)GlcNAc(b1-4)GlcNAc
# Procedure, shortened: as §1
# [15] = biological target: GlcNAc(b1-4)[GlcNAc(b1-6)]GalNAc
# Procedure, shortened: as §1
# [16] = biological target: GlcNAc(b1-6)Gal(b1-4)GlcNAc
# Procedure, shortened: as §1
# GlcNAc(b1-6)GalNAc = biological target: GlcNAc(b1-6)GalNAc
# Procedure, shortened: as §1
# [17] = biological target: GlcNAc6S(b1-3)Gal(b1-4)GlcNAc
# Procedure, shortened: as §1
# Kdn(a2-3)Gal(b1-3)GalNAc = biological target: Kdn(a2-3)Gal(b1-3)GalNAc
# Procedure, shortened: as §1
# Kdn(a2-3)Gal(b1-3)GlcNAc = biological target: Kdn(a2-3)Gal(b1-3)GlcNAc
# Procedure, shortened: as §1
# Kdn(a2-3)Gal(b1-4)Glc = biological target: Kdn(a2-3)Gal(b1-4)Glc
# Procedure, shortened: as §1
# Kdn(a2-3)Gal(b1-4)GlcNAc = biological target: Kdn(a2-3)Gal(b1-4)GlcNAc
# Procedure, shortened: as §1
# [18] = biological target: Kdn(a2-3)Gal(b1-4)[Fuc(a1-3)]GlcNAc
# Procedure, shortened: as §1
# Kdn(a2-6)Gal(b1-4)GlcNAc = biological target: Kdn(a2-6)Gal(b1-4)GlcNAc
# Procedure, shortened: as §1
# [19] = biological target: Man(a1-2)Man(a1-2)Man(a1-3)Man
# Procedure, shortened: as §1
# [20] = biological target: Man(a1-2)Man(a1-2)Man(a1-6)[Man(a1-3)]Man
# Procedure, shortened: as §1
# Man(a1-2)Man(a1-3)Man = biological target: Man(a1-2)Man(a1-3)Man
# Procedure, shortened: as §1
# [21] = biological target: Man(a1-2)Man(a1-3)[Man(a1-2)Man(a1-6)]Man
# Procedure, shortened: as §1
# [22] = biological target: Man(a1-2)Man(a1-3)[Man(a1-2)Man(a1-6)]Man(a1-6)[Man(a1-2)Man(a1-2)Man(a1-3)]Man
# Procedure, shortened: as §1
# [23] = biological target: Man(a1-2)Man(a1-3)[Man(a1-2)Man(a1-6)]Man(a1-6)[Man(a1-2)Man(a1-2)Man(a1-3)]Man(b1-4)GlcNAc(b1-4)GlcNAc
# Procedure, shortened: as §1
# [24] = biological target: Man(a1-2)Man(a1-3)[Man(a1-6)]Man(a1-6)[Man(a1-2)Man(a1-3)]Man(b1-4)GlcNAc(b1-4)GlcNAc
# Procedure, shortened: as §1
# [25] = biological target: Man(a1-2)Man(a1-6)[Man(a1-3)]Man(a1-6)[Man(a1-2)Man(a1-2)Man(a1-3)]Man
# Procedure, shortened: as §1
# [26] = biological target: Man(a1-2)Man(a1-6)[Man(a1-3)]Man(a1-6)[Man(a1-2)Man(a1-2)Man(a1-3)]Man(b1-4)GlcNAc(b1-4)GlcNAc
# Procedure, shortened: as §1
# Man(a1-3)[Man(a1-6)]Man = biological target: Man(a1-3)[Man(a1-6)]Man
# Procedure, shortened: as §1
# [27] = biological target: Man(a1-3)[Man(a1-6)]Man(a1-6)[Man(a1-2)Man(a1-3)]Man(b1-4)GlcNAc(b1-4)GlcNAc
# Procedure, shortened: as §1
# [28] = biological target: Man(a1-3)[Man(a1-6)]Man(a1-6)[Man(a1-3)]Man
# Procedure, shortened: as §1
# [29] = biological target: Man(a1-3)[Man(a1-6)]Man(a1-6)[Man(a1-3)]Man(b1-4)GlcNAc(b1-4)GlcNAc
# Procedure, shortened: as §1
# [30] = biological target: Man(a1-3)[Man(a1-6)]Man(b1-4)GlcNAc(b1-4)GlcNAc
# Procedure, shortened: as §1
# [31] = biological target: Man(a1-3)[Man(a1-6)]Man(b1-4)GlcNAc(b1-4)[Fuc(a1-6)]GlcNAc
# Procedure, shortened: as §1
# Man(a1-6)Man = biological target: Man(a1-6)Man
# Procedure, shortened: as §1
# Man(b1-4)GlcNAc = biological target: Man(b1-4)GlcNAc
# Procedure, shortened: as §1
# MurNAc(b1-4)GlcNAc = biological target: MurNAc(b1-4)GlcNAc
# Procedure, shortened: as §1
binder,measurement,setting,value
B1,glycan array binding signal (z-score),[1],-0.139
same,glycan array binding signal (z-score),[2],-0.191
same,glycan array binding signal (z-score),[3],-0.196
same,glycan array binding signal (z-score),[4],-0.189
same,glycan array binding signal (z-score),[5],-0.193
same,glycan array binding signal (z-score),[6],-0.185
same,glycan array binding signal (z-score),[7],-0.193
same,glycan array binding signal (z-score),GlcNAc(b1-3)GalNAc,-0.194
same,glycan array binding signal (z-score),GlcNAc(b1-3)Man,-0.19
same,glycan array binding signal (z-score),[8],-0.193
same,glycan array binding signal (z-score),[9],-0.194
same,glycan array binding signal (z-score),[10],-0.192
same,glycan array binding signal (z-score),[11],-0.192
same,glycan array binding signal (z-score),GlcNAc(b1-4)GlcNAc,-0.195
same,glycan array binding signal (z-score),[12],-0.194
same,glycan array binding signal (z-score),[13],-0.195
same,glycan array binding signal (z-score),[14],-0.195
same,glycan array binding signal (z-score),[15],-0.197
same,glycan array binding signal (z-score),[16],-0.194
same,glycan array binding signal (z-score),GlcNAc(b1-6)GalNAc,-0.195
same,glycan array binding signal (z-score),[17],-0.193
same,glycan array binding signal (z-score),Kdn(a2-3)Gal(b1-3)GalNAc,-0.195
same,glycan array binding signal (z-score),Kdn(a2-3)Gal(b1-3)GlcNAc,-0.192
same,glycan array binding signal (z-score),Kdn(a2-3)Gal(b1-4)Glc,-0.192
same,glycan array binding signal (z-score),Kdn(a2-3)Gal(b1-4)GlcNAc,-0.193
same,glycan array binding signal (z-score),[18],-0.193
same,glycan array binding signal (z-score),Kdn(a2-6)Gal(b1-4)GlcNAc,-0.192
same,glycan array binding signal (z-score),[19],3.39
same,glycan array binding signal (z-score),[20],8.43
same,glycan array binding signal (z-score),Man(a1-2)Man(a1-3)Man,5.44
same,glycan array binding signal (z-score),[21],2.88
same,glycan array binding signal (z-score),[22],7.92
same,glycan array binding signal (z-score),[23],3.85
same,glycan array binding signal (z-score),[24],6.18
same,glycan array binding signal (z-score),[25],6.72
same,glycan array binding signal (z-score),[26],7.63
same,glycan array binding signal (z-score),Man(a1-3)[Man(a1-6)]Man,3.32
same,glycan array binding signal (z-score),[27],5.95
same,glycan array binding signal (z-score),[28],2.33
same,glycan array binding signal (z-score),[29],3.55
same,glycan array binding signal (z-score),[30],7.64
same,glycan array binding signal (z-score),[31],3.33
same,glycan array binding signal (z-score),Man(a1-6)Man,-0.076
same,glycan array binding signal (z-score),Man(b1-4)GlcNAc,-0.19
same,glycan array binding signal (z-score),MurNAc(b1-4)GlcNAc,-0.194
